# Test results: PubChem BioAssay (NCI)
# “And” between values parts separate entries of the source, which are not always exact repeats. Equal values may be shown once.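 These data come from cells grown in 96-well plates and exposed to compound for 48 hours at five concentrations. GI50 marks 50% less growth. TGI is the concentration that stops growth completely.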
# System: NCI-H322M lung
# Assay: NCI tumour cell line growth inhibition, 48 h
SMILES,GI50,TGI
Fc1cccc(CNc2nc(SCCN3CCOCC3)nc3c2cnn3CC(Cl)c2ccc(Br)cc2)c1 (configuration not stated),> 100 µM,> 100 µM
Cn1cc(-c2cc(N)n3nc(-c4c[nH]c5ccc(Cl)cc45)cc3n2)c2cc(Br)cnc21,3.47 µM,22.8 µM
Oc1ccc(Cl)c(Nc2ncnc3c2cnn3CC(Cl)c2ccc(Br)cc2)c1 (configuration not stated),16.3 µM,38.5 µM
Cc1occc1C(=O)NN1C(=O)/C(=C/C=C/c2ccc([N+](=O)[O-])o2)SC1=S,14.3 µM,27.3 µM
COc1cc2cc(C(=O)N3C[C@@H](CCl)c4c3cc(OC(=O)N(CCC(=O)N3CCN(C)CC3)[C@H]3CCSSC3)c3ccccc43)[nH]c2c(OC)c1OC,0.211 µM and 0.235 µM,0.888 µM and 2.4 µM
Clc1ccc(/C=N/Nc2ncnc3sc4c(c23)CCN(Cc2ccccc2)C4)cc1,22.9 µM,> 100 µM
